Laboratory results reported in PubChem BioAssay AID686978 (National Center for Advancing Translational Sciences (NCATS), 2013).
Screen size: about 420,000 compounds; about 64,000 (15%) were called active. Inconclusive means that the source gave no clear call. Such entries were picked first, then a sample of the others. The call rests on the fitted dose curve; in most records, active means well fitted inhibition curve with a large enough effect; inconclusive means small, poorly fitted or top-dose-only effect; inactive means flat fitted curve, though single readings scatter. Potencies of inconclusive entries are left out as doubtful fits.

Assay: qHTS for Inhibitors of human tyrosyl-DNA phosphodiesterase 1 (TDP1): qHTS in cells in absence of CPT; further: nearly all actives have a fitted effect of over 55% in size
Details: DT40 Tdp1-/- hTDP1 cells, no CPT, ATP luminescence, 48 h; activity change, negative = growth inhibition: at 46.2 µM (top of the series) unless noted
How it was run: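 Compound effects on proliferation are scored in DT40 Tdp1-/-;hTDP1 cells in the absence of CPT. ATP levels (CellTiter-Glo luminescence) are recorded after a ≥48 hr, 37 °C incubation.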
On the % scale 0 is the no-effect control and ±100 the full control effect; potency means the concentration at half of the fitted maximal effect; tags describe the fitted curve by direction and shape.

Compound | Potency | activity change, negative = growth inhibition
COc1cccc(NC(=O)/C(C#N)=C\c2cn(Cc3ccc(C)cc3)c3ccccc23)c1 | active: 5.8 µM | 
COc1ccc(-n2c(SCC(=O)N/N=C(\C)c3cccnc3)nc3ccccc3c2=O)cc1 | inconclusive [inhibitor, partial curve] | 
Cc1cccc(N2CCN(C(=O)c3ccc4c(c3)CCN4S(C)(=O)=O)CC2)c1C | inconclusive [inhibitor, single point] | 
O=C(c1ccc(C(F)(F)F)cc1)N1CCC(c2nc(-c3ccc(S(=O)(=O)N4CCCC4)cc3)no2)CC1 | active: 18.4 µM | 
CCC(C)C(=O)NCCc1ccc(S(N)(=O)=O)cc1 (centres undefined) |  | inactive: -9.83%
COC(=O)c1c(-c2ccc(S(C)(=O)=O)cc2)sc2cc(OC)ccc12 | active: 20.6 µM | 
Cc1cc(S(=O)(=O)Nc2ccc3c(c2)COC3=O)ccc1F |  | inactive: -10.2%
Cc1ccc(NS(=O)(=O)Cc2ccccc2)cc1Cl | inconclusive [inhibitor, single point] | 
Cc1ccc(C(=O)Nc2cccnc2)cc1S(=O)(=O)N1CCCCCC1 | inconclusive [inhibitor, single point] | 
COc1ccccc1CNc1ccc(-c2nc(C)no2)cc1[N+](=O)[O-] | active: 7.31 µM | 
COc1ccc(C(CNC(=O)c2c(C)nn(Cc3ccccc3)c2Cl)N2CCOCC2)cc1 (centres undefined) | inconclusive [inhibitor, single point] | 
Cc1cccn2c(=O)c(C=O)c(Nc3ccc(S(N)(=O)=O)cc3)nc12 | inconclusive [inhibitor, full curve] | 
COc1ccc([N+](=O)[O-])cc1NC(=O)COC(=O)Cc1cc(OC)c(OC)c(OC)c1 |  | inactive: -23.6%
CCOc1ccc(-n2c(SCC(=O)Nc3cc(OC)c([N+](=O)[O-])cc3C)nc3ccccc32)cc1 | inconclusive [inhibitor, single point] | 
COCCn1c(N)c(C(=O)c2cccc(S(=O)(=O)N3CCCCCC3)c2)c(=O)[nH]c1=O |  | inactive: -26.9%
COCCNc1nc(Oc2cncc(Cl)c2)c2sccc2n1 | inconclusive [inhibitor, partial curve] | 
CCOC(=O)c1ccc2nc(C)c(C)nc2c1 |  | inactive: 12.1%
O=C(c1cnccn1)N1CCc2ccccc21 |  | inactive: -2.08%
O=C(Nc1nnc(-c2ccccc2)o1)c1cc(Cl)sc1Cl | active: 9.2 µM | 
Cc1cc2nc(N=C(N)N)nc(C)c2cc1C | active: 8.2 µM | 
CC(C)(C)N1C(=O)c2ccccc2NC(=O)C1C(=O)NCCOc1ccccc1 (centres undefined) | inconclusive [inhibitor, single point] | 
COc1ccc(S(=O)(=O)N(C)C)cc1NC(=O)CCNC(=O)c1ccco1 |  | inactive: -0.302%
O=C(Cn1c(=O)oc2ccccc21)N1CCOCC1 |  | inactive: -4.86%
Cc1nc(SCc2ccc(OCCC(C)C)cc2)n[nH]1 | inconclusive [inhibitor, single point] | 
COc1ccc(-c2oc3ncn4nc(-c5ccccc5Br)nc4c3c2-c2ccc(OC)cc2)cc1 | inconclusive [inhibitor, single point] | 

Compound | Potency | activity change, negative = growth inhibition
S=C(Nc1ccc(Cl)cc1)NC1CCCCC1 | inconclusive [inhibitor, partial curve] | 
COc1ccc(CNc2ncnc3cc(OC)c(OC)cc23)cc1 | inconclusive [inhibitor, partial curve, poor fit] | 
N#Cc1c(N2CCOCC2)nsc1-c1ccc(C(F)(F)F)cc1 | inconclusive [inhibitor, full curve, poor fit] | 
CCOC(=O)C(CC)Sc1cc(C)nc2ccc(OC)cc12 (centres undefined) | inconclusive [inhibitor, single point] | 
Cc1ccc(OCCOC(=O)c2cccc(S(=O)(=O)N3CC(C)OC(C)C3)c2)cc1 (centres undefined) | inconclusive [inhibitor, single point] | 
O=C(c1cccc(S(=O)(=O)N2CCOCC2)c1)N(CCO)Cc1ccccc1 |  | inactive: 0.237%
COc1ccccc1N1CCN(C(=O)CCN2C(=O)c3cccc4cccc(c34)C2=O)CC1 | inconclusive [inhibitor, single point] | 
O=C(c1ccc2c(c1)N(Cc1cccc(Cl)c1)C(=O)c1ccccc1S2(=O)=O)N1CCCCC1 | inconclusive [inhibitor, single point] | 
CCCOc1cccc(C(=O)N/N=C/c2ccoc2)c1 |  | inactive: 21.5%
O=C(O)c1ccccc1NC(c1ccccc1)c1ccc2cccnc2c1O (centres undefined) | inconclusive [inhibitor, single point] | 
Cc1cccc(OCC(=O)Nc2ccc(O)c(-c3nc4ccccc4o3)c2)c1 | inconclusive [inhibitor, single point] | 
COc1ccc(NC(=O)c2ccc3ccccc3c2)cc1 |  | inactive: 4.4%
C=C(C)CSc1nnc([C@H](CCSC)NC(=O)OC(C)(C)C)o1 | inconclusive [inhibitor, partial curve] | 
COc1ccccc1Nc1nc(-c2sc(NC(=O)c3ccco3)nc2C)cs1 | active: 14.6 µM | 
COc1cccc(OCCCn2cc(/C=C3/C(=N)N4C=C(C)SC4=NC3=O)c3ccccc32)c1 | active: 6.51 µM | 
Cc1ccc(C)c(NC(=O)Cn2cc(C(=O)C3CCCCC3)c3ccccc32)c1 | inconclusive [inhibitor, single point] | 
C=C(CO)C1Cc2cc(C(C)=O)ccc2O1 (centres undefined) |  | inactive: -11.8%
CC(C)(CNC(=O)c1ccccc1F)CNC(=O)c1ccccc1F |  | inconclusive: -32% [inhibitor]
O=C(CN1CCCN(Cc2ccc(Cl)cc2)S1(=O)=O)Nc1ccccc1F | inconclusive [inhibitor, single point] | 
CC(=O)Nc1cc(-c2ccc(CO)cc2)cn2c(-c3cccc(C(F)(F)F)c3)cnc12 | active: 23.1 µM | 
CCOC(=O)c1cccc(NC(=O)C2CCC(CNc3c(N4CCOCC4)c(=O)c3=O)CC2)c1 (centres undefined) |  | inactive: -0.511%
O=C(Oc1cccc2c(O)cccc12)c1ccco1 | active: 11.6 µM | 
COc1cccc(NC(=O)c2oc3ccccc3c2NC(=O)c2ccc(C(F)(F)F)cc2)c1 | inconclusive [inhibitor, single point] | 
CCN(CC(=O)Nc1c(F)cccc1F)C(=O)CCCN1C(=O)c2cccc3cccc(c23)C1=O | inconclusive [inhibitor, single point] | 
O=C(Nc1ccc(NC(=O)c2ccc(Cl)cc2Cl)cc1)c1cccs1 |  | inactive: -27.7%

Compound | Potency | activity change, negative = growth inhibition
COc1ccccc1NC(=O)CCCCCN1C(=O)c2cccc([N+](=O)[O-])c2C1=O |  | inconclusive: -2.5% [inhibitor]
COc1cc(/C=C(\C#N)c2nc3ccc(C)cc3[nH]2)c([N+](=O)[O-])cc1OC | inconclusive [inhibitor, single point] | 
CCCC(c1nnnn1C1CCCCC1)N1CCN(c2ncccn2)CC1 (centres undefined) | inconclusive [inhibitor, single point] | 
Cc1cc(=O)c2c(C)ccc(C)c2[nH]1 | active: 9.2 µM | 
CC(C)NC(=O)C1(C)CCN1Cc1ccc(C(F)(F)F)cc1 (centres undefined) | inconclusive [inhibitor, single point] | 
CCSc1nc2sc3c(c2c(=O)n1CC)CC(C)(C)OC3 | inconclusive [inhibitor, single point] | 
Cc1oc(-c2cccc(Cl)c2)nc1CN1CCC(C(=O)NCCCN2CC(C)CC(C)C2)CC1 (centres undefined) | active: 20.6 µM | 
COc1cc(OC)cc(C(=O)NNc2nc3cc4c(cc3s2)OCO4)c1 |  | inactive: -0.59%
COc1ccc(C)cc1NC(=O)c1ccc2c(O)c(S(=O)(=O)c3ccccc3)c(=O)[nH]c2c1 |  | inactive: 12.5%
CN(Cc1ccc([N+](=O)[O-])cc1)c1ccccc1 |  | inactive: -5.41%
Nc1c(Cl)ncnc1NCc1cccnc1 | inconclusive [inhibitor, partial curve] | 
O=C(NCc1ccncc1)Nc1cc(Cl)ccc1Cl |  | inactive: 6.49%
CNC(=O)c1ccc(NC(=O)Cc2ccc(S(=O)(=O)N3CCOCC3)s2)cc1 |  | inactive: -20.6%
CN(C(=O)CSC1=NCCS1)c1ccccc1 |  | inactive: -5.49%
CC(C)CC(=O)NC(=S)NCCc1ccccc1 | inconclusive [inhibitor, single point] | 
Cc1cc(C)c(NC(=O)CN(C)CC(=O)Nc2cccc(S(=O)(=O)N(C)c3ccccc3)c2)c(C)c1 | active: 23.1 µM | 
Cc1ccccc1CN1C(=O)Nc2ccccc2C(=O)N1C(C)(C)C | inconclusive [inhibitor, single point] | 
Cc1ccccc1C(=O)NC1CCN(CC(=O)Nc2ccccc2)CC1 |  | inactive: 20.7%
CCOc1ccc(CN(C(=O)c2oc3cc(C)ccc3c2C)C2CCS(=O)(=O)C2)cc1 (centres undefined) | inconclusive [inhibitor, single point] | 
Cc1cc(C)cc(NC(=O)c2ccc(CSc3nnc(C)s3)cc2)c1 | inconclusive [inhibitor, partial curve, poor fit] | 
CCCCC(CC)C(=O)NCc1ccccc1OC (centres undefined) | inconclusive [inhibitor, partial curve] | 
CC1=C(C(=O)OC(C)C)C(c2ccc(Br)s2)NC(=O)N1C (centres undefined) | inconclusive [inhibitor, partial curve, poor fit] | 
CC(=O)CC(=O)NC(=NC1CCCCC1)Nc1nc(C)cc(C)n1 | inconclusive [inhibitor, single point] | 
CCCN1C(=O)C(Cc2nc3ccccc3c(=O)n2-c2ccccc2)c2ccccc21 (centres undefined) |  | inconclusive: -37.2% [inhibitor]
